Several values for one entry are separate records, joined by “and”; a condition that tells them apart may be missing. Equal entries are not always repeated. In all, about 50,000 compounds went through this assay and about 800 (1.6%) showed an effect of 50% or more. The list shows a part of the results.

111 compounds from PubChem BioAssay AID1240 (Sanford-Burnham Center for Chemical Genomics, 2008) can be followed below.

In this experiment the target is Bcl-2-like protein 10 (Homo sapiens) (UniProt Q9HD36). As to the kind of experiment: Phenotype converters, Bcl-B/TR3 peptide binding displacement, primary biochemical FP (AID 1240).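 Further: 0% = Bcl-B with tracer peptide and DMSO and 100% = tracer peptide lacking Bcl-B.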 The note with it: GST-Bcl-B / FITC-TR3 peptide fluorescence polarization; stronger effect = higher value; compound at 3.75 mg/L.
Chain of UniProt Q9HD36 (Q9HD36 whole entry, looked up): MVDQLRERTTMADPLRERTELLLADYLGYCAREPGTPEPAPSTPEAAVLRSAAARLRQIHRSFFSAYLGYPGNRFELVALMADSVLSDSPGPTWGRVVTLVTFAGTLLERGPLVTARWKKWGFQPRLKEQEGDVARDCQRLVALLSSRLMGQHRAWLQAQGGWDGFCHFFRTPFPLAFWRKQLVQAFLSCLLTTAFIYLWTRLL
As for `Cc1ccc(-n2nc3ccc(NC(=O)c4ccco4)cc3n2)cc1`, the displacement is 49.3%.

As for `O=C(Cc1ccccc1)Nc1nnc(COc2ccccc2)s1`, the displacement was -4.7%.

On to `COc1ccc(S(=O)(=O)NNC(=O)c2ccc([N+](=O)[O-])cc2)cc1`, for which the displacement came to 0.4%.

As for `Oc1oc(-c2ccccc2)nc1C=Nc1ccc(Cl)c2cccnc12`, the displacement was determined as 36%.

In the case of `O=C(NCCc1ccc(F)cc1)C1CC(=O)N(c2ccccc2)C1` (stereo unspecified), the displacement is -4.1%.

Turning to `COc1cccc(NC(=O)C2c3ccccc3Oc3ccccc32)c1`, the displacement amounted to 5.8%.

In the case of `O=c1/c(=C/c2ccc(Cl)cc2)sc2nc3cc(Br)cnc3n12`, the displacement is -4.9%.

For `O=C(NC(=S)Nc1cc([N+](=O)[O-])ccc1Cl)c1ccc(Cl)cc1`, the displacement was 0.9%.

Turning to `O=C(O)CCCC(=O)Nc1cccc(C(=O)O)c1`, the displacement was -9.8%.

As to `COc1cccc(N(CC(=O)Nc2ccc(C)cc2)S(=O)(=O)c2ccccc2)c1`, the displacement was 8.4%.

For the compound `O=C(N/N=C\c1ccccc1Cl)c1cncc(Br)c1`, the displacement was determined as 3.6%.

Turning to `Cc1cc2c(cc1C)CSC(c1cccc([N+](=O)[O-])c1)SC2`, the displacement amounted to 3.9%.

With `CCN1C(=O)/C(=C\c2ccc(Cl)c([N+](=O)[O-])c2)SC1=S`, the displacement is 12.3%.

With `O=C(CN(c1cccc(Br)c1)S(=O)(=O)c1ccccc1)Nc1ccccc1`, the displacement was found to be 2%.

Turning to `Cc1ccc(N2CC(C(=O)Nc3cccc(C)n3)CC2=O)cc1` (stereo unspecified), the displacement was -12.8%.

For the compound `CC(C)CNC(=O)c1nn2c(c1Cl)NC(c1cccs1)CC2C(F)(F)F` (stereo unspecified), the displacement turned out to be 1.6%.

In the case of `CCC(=O)Nc1ccc(NC(=O)c2cc(Cl)ccc2OC)cc1`, the displacement is 4.5%.

As to `COc1ccc(/C=N\NC(=O)CNc2ccccc2C)cc1Cl`, the displacement is 13.6%.

For `COCCN1C(=O)/C(=C\c2ccc(-c3ccc(Br)cc3)o2)SC1=S`, the displacement is 11.4%.

Regarding `CC1CN(c2ccc([N+](=O)[O-])cc2)CCN1S(=O)(=O)c1ccccc1` (stereo unspecified), the displacement is 10.7%.

On to `O=C(CSc1nc2ccccc2o1)OCC(=O)c1ccc(F)cc1`, for which the displacement came out at 16.9%.

Consider `COC(=O)c1c(NC(=O)c2cnccn2)sc2c1CCCCCC2`, for which the displacement is -0.1%.

As to `COc1ccc(N2C(=O)/C(=C/C3C(=O)N(c4ccccc4)N=C3C)C(=O)NC2=S)cc1` (stereo unspecified), the displacement was -0.4%.

Regarding `Cn1c(=O)c2[nH]c(N=Nc3c(O)[nH]c(=O)[nH]c3=O)nc2n(C)c1=O`, the displacement is -36.6%.

For `O=C1/C(=C\c2cccc([N+](=O)[O-])c2)SC(=S)N1c1ccccc1`, the displacement was found to be 10.8%.

Consider `N#C/C(=C\Nc1ccc(Cl)cc1)C(N)=O`, for which the displacement is 9.5%.

Regarding `CCN(CC)c1ccc(NC(=O)COc2ccc(OC)cc2)cc1`, the displacement is -5%.

For the compound `O=C1CC(c2ccccc2)CC(O)=C1C=NCc1ccc2c(c1)OCO2` (stereo unspecified), the displacement is -2.5%.

With `COc1ccc(NC(=O)/C=C/c2ccccc2)c(OC)c1`, the displacement is -4%.

In the case of `CN(C)c1cc(N/N=C/c2cccc(O)c2)nc(N(C)C)n1`, the displacement was 7.7%.

`COC(=O)c1ccc(CSc2nc3sc4c(c3c(=O)[nH]2)CCCC4)cc1`: the displacement is -0.7%.

On to `Cc1cc(NC(=O)Nc2ccccc2)no1`, for which the displacement was -7.7%.

For `CCOC(=O)c1c[nH]c2c(Br)cccc2c1=O`, the displacement worked out at 1.8%.

Regarding `COC(=O)c1cccc(NC(=O)C2COc3ccccc3O2)c1` (stereo unspecified), the displacement is -3.9%.

In the case of `Cc1ccc(S(=O)(=O)Nc2ccc3ccccc3c2)cc1`, the displacement stood at 17.9%.

On to `C/C(C=NN1CCN(Cc2ccccc2)CC1)=C\c1ccccc1`, for which the displacement is 1.8%.

For the compound `CCN(CC)S(=O)(=O)c1ccc2c(c1)OCCO2`, the displacement was determined as 0.4%.

Turning to `CCc1ccc(-c2nn(-c3cc(N4CCOCC4)ccc3[N+](=O)[O-])c(=O)c3ccccc23)cc1`, the displacement was found to be 9.4%.

Regarding `O=C1c2ccccc2-c2onc3ccc(Nc4cccc([N+](=O)[O-])c4)c1c23`, the displacement is 24.2%.

On to `CCOC(=O)c1c(NC(=O)COc2cc(Cl)ccc2Cl)sc(C(C)=O)c1C`, for which the displacement was -8.8%.

As to `O=C(c1cccc(Cl)c1)N1CCN(Cc2ccncc2)CC1`, the displacement was -8%.

Consider `O=C(Nc1nnc(-c2ccco2)s1)c1ccccc1I`, for which the displacement was -5.7%.

Consider `O=C(CSC(=S)N1CCOCC1)c1ccc([N+](=O)[O-])cc1`, for which the displacement was found to be 38.4%.

Consider `Cc1onc(-c2c(Cl)cccc2Cl)c1C(N)=O`, for which the displacement is 11.9%.

As for `CN1C(=O)C2(N=C(C(=O)O)c3ccccc3N2C)c2ccccc21` (stereo unspecified), the displacement is -3.5%.

Turning to `CCOc1ccc(NC(=O)C2=C(C)NC(=O)NC2c2cccc(Br)c2)cc1` (stereo unspecified), the displacement is -7.7%.

On to `CCOc1ccc(N(CC(=O)OC)S(=O)(=O)c2ccc(C)cc2)cc1`, for which the displacement is 10.3%.

For the compound `COc1ccc(/C(C)=N\NC(=O)COc2cccc(Cl)c2)cc1OC`, the displacement stood at 6.5%.

As for `Cc1n[nH]c(C)c1CCCCCOc1ccc(Cl)cc1`, the displacement is -1.3%.

For `COc1ccc(C(=O)N2CCN(Cc3cc(OC)c(O)c(OC)c3)CC2)cc1OC`, the displacement turned out to be 8.6%.

For the compound `CN(C)C=NC1=NN(c2ccccc2)CC1`, the displacement is 14%.

Turning to `O=C(Nc1ccc(-c2ccc([N+](=O)[O-])cc2)cc1)c1ccccc1F`, the displacement was -11.7%.

Consider `CN(c1ccc(C(=O)Nc2ccccc2Br)cc1)S(=O)(=O)c1ccccc1`, for which the displacement is -8.9%.

As to `c1ccc(-c2noc(-c3ccc4ccccc4c3)n2)cc1`, the displacement came to 25.5%.

As to `Cc1ccc(C(=O)ONC(=O)c2ccc(Cl)cc2)cc1[N+](=O)[O-]`, the displacement was determined as 3.4%.

Regarding `CCOc1ccc(N2C(=O)NC(=O)/C(=C/C=C/c3ccco3)C2=O)cc1`, the displacement was found to be 36%.

`O=[N+]([O-])c1ccccc1S(=O)(=O)NCCN1CCOCC1`: the displacement was -6.5%.

On to `CCN(CC)CCOc1ccc([N+](=O)[O-])cc1`, for which the displacement is 5.3%.

As to `CCOC(=O)c1c(NC(=O)c2ccc(Cl)c([N+](=O)[O-])c2)sc(C(=O)Nc2ccccc2OC)c1C`, the displacement is -14.3%.

`Cc1cc(/C=N/NC(N)=O)c(C)n1-c1ccc(Cl)cc1`: the displacement is -13.9%.

As for `N/C(Cc1ccc(Cl)cc1)=N\OC(=O)c1ccccc1Cl`, the displacement amounted to 0.1%.

As to `NS(=O)(=O)c1ccc(NC(=O)/C(=C\c2ccc([N+](=O)[O-])cc2)NC(=O)c2ccccc2)cc1`, the displacement was determined as 3.1%.

For `CC(=O)Nc1ccc(S(=O)(=O)NC(=O)CC(C)C)cc1`, the displacement amounted to 7.9%.

Consider `CSc1nc(NC(N)=O)c2c3c(sc2n1)CC(C(C)(C)C)CC3` (stereo unspecified), for which the displacement was found to be 0.7%.

`CC1=C(C(=O)Nc2ccccc2C)C(c2ccc(C)cc2)NC(=S)N1` (stereo unspecified): the displacement is -4.6%.

On to `Cc1ccc(C(=O)Nc2ccccc2-c2ccccc2)cc1`, for which the displacement was -8.4%.

Turning to `COc1cc(C=O)cc2c1OC1(C=C2)N(C)c2ccccc2C1(C)C` (stereo unspecified), the displacement was 5.8%.

For the compound `CCOC(=O)c1ccc(N2C(=O)C3CC=C(C)CC3C2=O)cc1` (stereo unspecified), the displacement is -7.5%.

For the compound `CC(C)(C)CC(C)(C)NC1=CC(=O)OC12CCCCC2`, the displacement amounted to 11.8%.

Turning to `CCOC(=O)C1=C(O)/C(=C/c2cccc(Br)c2)SC1=Nc1ccccc1`, the displacement came out at 14.8%.

For the compound `CCOc1ccc(N/C=C(/C#N)c2nc(-c3ccc(F)cc3)cs2)cc1`, the displacement was -8.1%.

As to `CCc1ccc(-c2nc3cc(NC(=O)c4cccc(OC)c4)ccc3o2)cc1`, the displacement came out at 7.1%.

Take `CCOC(=O)/C(=N/O)C1=NC2(CCCCC2)Cc2ccccc21`: the displacement is -1.8%.

With `O=C(CSCc1ccc(Cl)cc1Cl)Nc1ccc(O)cc1C(=O)O`, the displacement was found to be 7.2%.

Regarding `CN(Cc1ccccc1)C(=O)CN(c1cccc([N+](=O)[O-])c1)S(=O)(=O)c1ccccc1`, the displacement is -5%.

`O=C(CSCc1ccc(Cl)cc1)Nc1ccc(C(=O)Nc2nccs2)cc1`: the displacement turned out to be 6.3%.

With `O=C(Cc1ccc(F)cc1)NCc1ccccc1`, the displacement stood at 10%.

For the compound `COc1ccccc1/C=C/C=N/NC(=O)CSc1nc2ccccc2n1C`, the displacement was -7.4%.

On to `Cc1ccc(N(Cc2c(O)ccc3ccccc23)C(=O)c2ccco2)cc1`, for which the displacement was -2.3%.

Consider `O=C(Nc1ccccc1C(=O)N1CCOCC1)c1cccnc1`, for which the displacement turned out to be 8.2%.

For the compound `COC(=O)C1=C(C)NC2=C(C(=O)c3ccccc32)C1c1ccc(-c2ccc(C(=O)O)cc2)o1` (stereo unspecified), the displacement worked out at 10.2%.

For `CCOC(=O)COc1ccccc1/C=C1\C(=O)NC(=O)N(c2ccc(Br)c(C)c2)C1=O`, the displacement is -8.3%.

For the compound `COc1ccccc1Cc1noc(/C=C/c2ccccc2)n1`, the displacement was -1.2%.

`COCCCNC(=O)/C=C/c1ccc(C)cc1`: the displacement is -8%.

For `Cc1ccc(N2NC(=O)/C(=C/c3ccc4c(c3)OCO4)C2=O)cc1C`, the displacement amounted to 6.3%.

Turning to `Cc1cc(C)c2oc(-c3ccc(NC(=O)Cc4ccccc4)cc3O)nc2c1`, the displacement came to 42.8%.

Take `COc1cc2nc(-c3cccc(C)c3)oc(=O)c2cc1OC`: the displacement is 8.8%.

`N#Cc1cccc(NC(=O)CCC(=O)O)c1`: the displacement is -6.5%.

For the compound `Cc1ccc(N2C(=O)c3ccc(C(=O)Nc4ccc(O)cc4)cc3C2=O)cc1C`, the displacement was determined as 17.7%.

As for `CCN(CC)CC(=O)Nc1sc2c(c1C(N)=O)CCCC2`, the displacement was -1.1%.

`Clc1ccc(OCCSc2ncnc3nc[nH]c23)cc1`: the displacement is -7%.

As to `Clc1cccc(OCCCCN2CCOCC2)c1Cl`, the displacement was -0.6%.

On to `COc1cccc(-c2cc(C(=O)Nc3ccc(S(N)(=O)=O)cc3)c3ccccc3n2)c1`, for which the displacement is -6.8%.

For `COc1ccc2c(c1OC)C(=O)OC2Nc1ccccc1Br` (stereo unspecified), the displacement is -5.8%.

Take `COc1ccc(CNCc2cccc3ccccc23)cc1OC`: the displacement came out at 11.8%.

Regarding `Cc1ccc(C)c(C(C)(C)CC(=O)O)c1`, the displacement came out at 0%.

Consider `CCc1c(O)nc(SCC(=O)Nc2ccc(OC)cc2)[nH]c1=O`, for which the displacement was 3.9%.

In the case of `O=C1CC(N2CCC(Cc3ccccc3)CC2)C(=O)N1c1cccc(Cl)c1` (stereo unspecified), the displacement was -2.9%.

Turning to `COC(=O)c1c(NC(=O)Nc2ccc(Cl)c(Cl)c2)sc2c1CCC2`, the displacement is 11.8%.

`Cc1cc(Cl)ccc1OCC(N)=O`: the displacement was -0.8%.

With `O=c1oc2ccccc2cc1-c1ccc([N+](=O)[O-])cc1`, the displacement is -3.3%.

Consider `COC(=O)CN1C(=O)c2cccc3cccc(c23)C1=O`, for which the displacement worked out at 2.1%.

Take `CC1(C)C(C=C(Cl)Cl)C1C(=O)Nc1cccc(C(=O)O)c1` (stereo unspecified): the displacement stood at 10%.

Regarding `CC1(O)c2ccccc2C(=O)N1Cc1ccccc1` (stereo unspecified), the displacement came out at 12.6%.

For the compound `O=C(CN(c1ccccc1)S(=O)(=O)c1ccccc1[N+](=O)[O-])Nc1ccccc1Cl`, the displacement came out at 5.9%.

For `COc1ccc(NC(=O)/C(C#N)=C\c2cc(C)n(-c3ccc(Cl)c(Cl)c3)c2C)cc1`, the displacement is -1.7%.

For the compound `COc1cc(/C=C2\SC(=S)N(CC(=O)O)C2=O)ccc1OC(=O)C12CC3CC(CC(C3)C1)C2`, the displacement worked out at 5.6%.

In the case of `NC(=O)c1cc(NC(=O)C(c2ccccc2)c2ccccc2)c(Cl)cc1Cl`, the displacement is -1.6%.

As for `CCCCOc1ccccc1NC(=O)c1ccc(C(C)(C)C)cc1`, the displacement is -10.7%.

As to `COc1ccc(/C=C2\C(=O)N(c3ccc(C)c(Cl)c3)N=C2C)cc1[N+](=O)[O-]`, the displacement is -3.3%.

Consider `COc1ccc(-n2c(=S)[nH]c3sc4c(c3c2=O)CC(C)(C)OC4)cc1`, for which the displacement was 6.9% and -4%.
